The values that follow come from PMC4336329 (PLoS ONE, 2015).

Hit rate of the full screen: of about 310,000 compounds, about 14,000 (4.5%) showed an effect of 50% or more. Effects have a minus sign here. Some of the results follow.
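Note: peak tail current of the secondary pulse compared with the same well before compound.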

Chain of human ether-à-go-go-related gene (hERG) potassium channel (Q12809 whole entry, looked up): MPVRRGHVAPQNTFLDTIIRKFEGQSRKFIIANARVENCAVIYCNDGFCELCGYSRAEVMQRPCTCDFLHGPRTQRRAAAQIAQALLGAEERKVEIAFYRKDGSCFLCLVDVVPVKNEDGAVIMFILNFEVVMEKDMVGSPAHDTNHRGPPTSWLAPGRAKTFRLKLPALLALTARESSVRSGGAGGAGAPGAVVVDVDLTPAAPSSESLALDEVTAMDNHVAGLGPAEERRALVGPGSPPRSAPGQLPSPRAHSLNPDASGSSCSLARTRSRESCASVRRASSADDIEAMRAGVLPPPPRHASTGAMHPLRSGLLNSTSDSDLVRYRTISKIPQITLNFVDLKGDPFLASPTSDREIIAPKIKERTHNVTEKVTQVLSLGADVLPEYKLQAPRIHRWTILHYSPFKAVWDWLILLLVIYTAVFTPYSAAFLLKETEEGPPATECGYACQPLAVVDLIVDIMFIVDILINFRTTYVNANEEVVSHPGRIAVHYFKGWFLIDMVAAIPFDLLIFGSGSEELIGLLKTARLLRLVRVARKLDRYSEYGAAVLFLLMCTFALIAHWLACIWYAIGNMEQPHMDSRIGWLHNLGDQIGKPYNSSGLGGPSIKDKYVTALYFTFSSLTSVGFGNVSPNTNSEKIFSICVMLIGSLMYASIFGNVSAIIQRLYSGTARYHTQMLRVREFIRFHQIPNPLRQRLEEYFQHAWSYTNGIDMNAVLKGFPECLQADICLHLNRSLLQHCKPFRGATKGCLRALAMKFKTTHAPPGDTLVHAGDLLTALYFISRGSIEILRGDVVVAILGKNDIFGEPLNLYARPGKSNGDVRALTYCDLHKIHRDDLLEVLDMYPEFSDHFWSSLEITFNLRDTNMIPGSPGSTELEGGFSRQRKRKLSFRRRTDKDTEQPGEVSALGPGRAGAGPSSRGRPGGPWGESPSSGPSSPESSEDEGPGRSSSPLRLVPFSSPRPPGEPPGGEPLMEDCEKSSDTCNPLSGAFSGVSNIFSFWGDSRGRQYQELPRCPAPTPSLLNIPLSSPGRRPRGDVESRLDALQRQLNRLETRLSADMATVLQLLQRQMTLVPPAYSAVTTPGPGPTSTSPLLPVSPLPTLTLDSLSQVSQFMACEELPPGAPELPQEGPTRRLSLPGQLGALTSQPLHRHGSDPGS

This assay has as its target human ether-à-go-go-related gene (hERG) potassium channel (human, UniProt Q12809). Put plainly: primary screen, population patch clamp on CHO cells stably expressing hERG.
On to `CCCCSc1nnc2[nH]c(=O)cc(N)n12`, for which the “hERG current change (%, negative = inhibition) at 10uM” value was -14.3%.
Regarding `Cc1ccc(N/N=C(\Cc2nc3ccccc3[nH]2)c2ccccc2)cc1`, the “hERG current change (%, negative = inhibition) at 10uM” value was -8.21%.
Consider `Cc1ccnc2nc(C(=O)NCCc3ccc(F)cc3)nn12`, for which the “hERG current change (%, negative = inhibition) at 10uM” value was found to be 16.3%.
Turning to `Cc1cc(C(=O)Nc2ccccc2N2CCOCC2)c2ccccc2n1`, the “hERG current change (%, negative = inhibition) at 10uM” value is reported as -15.5%.
With `CCOc1ccc(CC(=O)C2C(=O)CCCC2=O)cc1OCC`, the “hERG current change (%, negative = inhibition) at 10uM” value is 4.17%.
For `CCCN1CCN(CCCNC(=O)Cn2nc(-c3ccc(C)cc3)ccc2=O)CC1`, the “hERG current change (%, negative = inhibition) at 10uM” value is on record as -24.6%.
With `COc1cc(C)c(S(=O)(=O)Nc2ccc(CC(=O)O)cc2)cc1C`, the “hERG current change (%, negative = inhibition) at 10uM” value is given as -9.44%.
Consider `COc1ccc2sc(N(CCCN(C)C)C(=O)c3ccc(S(=O)(=O)N4CCCC4)cc3)nc2c1.Cl`, for which the “hERG current change (%, negative = inhibition) at 10uM” value is -43.9%.
`CCOc1cc(C)ccc1OCc1nnc(SCC(=O)c2cccc([N+](=O)[O-])c2)n1CC`: the “hERG current change (%, negative = inhibition) at 10uM” value is -7.11%.
As for `CCOC(=O)C1CCCN(CC(=O)NC2=Nc3ccccc3N=C(C)C2c2ccccc2)C1` (stereo not drawn), the “hERG current change (%, negative = inhibition) at 10uM” value is on record as -46.9%.
For the molecule `O=C(OCc1cn(-c2ccc(Cl)c(Cl)c2)nn1)c1ccccc1`, the “hERG current change (%, negative = inhibition) at 10uM” value came to 0.801%.
As to `COC(=O)c1cccc(NC(=O)CCNC(=O)c2ccc([N+](=O)[O-])cc2)c1`, the “hERG current change (%, negative = inhibition) at 10uM” value was -48%.
Consider `COc1cccc(N2C(=O)C3CCCN3C2c2cccs2)c1` (stereo not drawn), for which the “hERG current change (%, negative = inhibition) at 10uM” value was found to be 15%.
As to `O=C(COC(=O)/C=C/c1ccccc1)Nc1cccc(Oc2ccccc2)c1`, the “hERG current change (%, negative = inhibition) at 10uM” value worked out at 9.05%.
With `Cc1cccc([N+](=O)[O-])c1NC(=O)COC(=O)c1nc2nccc(C)n2n1`, the “hERG current change (%, negative = inhibition) at 10uM” value is given as 14.4%.
On to `O=C(CSc1ccc2nnc(CCNC(=O)c3ccccc3)n2n1)Nc1ccccc1F`, for which the “hERG current change (%, negative = inhibition) at 10uM” value is 5.7%.
Consider `O=C(CSc1nc2ncc(Br)cc2[nH]1)c1cccc([N+](=O)[O-])c1`, for which the “hERG current change (%, negative = inhibition) at 10uM” value is recorded as -45.7%.
As for `CCCn1nc(C(=O)NNC(=O)c2cc(S(=O)(=O)NC)ccc2Br)c2ccccc2c1=O`, the figure is 14.4%; as for `Cc1cccc(OCCN2CSC(=S)N(C)C2)c1`, 6.92%; as for `COc1ccc(OCc2cc(C(=O)NCCc3ccccc3)no2)c(Cl)c1`, 11.1%.
The result for `O=C(Nc1nnc(COc2ccc(Cl)cc2)s1)c1ccco1` reads 29.6%.
With `CC(C)C[C@H]1C(=O)N2CCCC2[C@]2(O)O[C@](NC(=O)[C@@H]3C=C4c5cccc6[nH]cc(c56)CC4N(C)C3)(C(C)C)C(=O)N12` (stereo partly drawn), the “hERG current change (%, negative = inhibition) at 10uM” value is listed as -16.6%.
For the molecule `COCCCN(C(=O)C(C)Oc1ccc(Br)cc1)c1c(N)n(Cc2ccccc2)c(=O)[nH]c1=O` (stereo not drawn), the “hERG current change (%, negative = inhibition) at 10uM” value stood at 14.2%.
As for `CSCCC1C(=O)OC2(C)CC(C)(C)NC(=S)N12` (stereo not drawn), the figure is -2.46%; as for `CC1CC(C)(C)NC(C)c2ccccc21.Cl` (stereo not drawn), 5.29%; as for `O=C(CSc1ccccc1)Nc1ccc(N2CCOCC2)c(F)c1`, 11.8%.
In the case of `Cl.O=C(c1cccc(F)c1)N1CCC(O)(c2cccnc2)CC1`, the “hERG current change (%, negative = inhibition) at 10uM” value was 18.1%.
Regarding `CCOC(=O)C1(c2ccccc2)CCN(CC(=O)Nc2cccc3ccccc23)CC1`, the “hERG current change (%, negative = inhibition) at 10uM” value is listed as 2.87%.
Consider `COc1ccccc1OCC(=O)N(Cc1nnc(-c2ccccc2Cl)o1)C1CC1`, for which the “hERG current change (%, negative = inhibition) at 10uM” value is reported as -44.2%.
The result for `COc1cc(/C=N/NC(=O)Cc2ccccc2)cc([N+](=O)[O-])c1O` reads 10%.
For the molecule `CC(=O)O[C@@H]1/C=C/[C@](C)(O)C[C@@H](C)C/C=C/[C@H]2[C@@H]3O[C@]3(C)[C@@H](C)[C@H]3[C@H](Cc4ccccc4)NC(=O)[C@@]312`, the “hERG current change (%, negative = inhibition) at 10uM” value worked out at 16%.
As for `Cc1ccc(C(=O)Oc2ccc(C(=O)COC(=O)c3cnccn3)cc2)cc1`, the figure is -10.4%.
Take `COc1nc2ccc(C)cc2cc1-c1noc(-c2cccnc2)n1`: the “hERG current change (%, negative = inhibition) at 10uM” value is given as 9.23%.
Regarding `COCCNC(=O)Cn1ncc2ccsc2c1=O`, the “hERG current change (%, negative = inhibition) at 10uM” value is listed as 23.2%.
As to `CCOc1ccccc1NC(=O)N1CCC(C(=O)c2ccc(F)cc2)CC1`, the “hERG current change (%, negative = inhibition) at 10uM” value is -32%.
As to `O=C(CSc1ccccc1)NCc1cccnc1`, the “hERG current change (%, negative = inhibition) at 10uM” value came to 6.07%.
For the molecule `CCOC(=O)C1CCN(C2CCN(C(=O)c3oc4c(C)c(C)ccc4c3C)CC2)CC1`, the “hERG current change (%, negative = inhibition) at 10uM” value was -69.3%.
`O=C(OCC(=O)N1CCN(C(=O)c2ccco2)CC1)c1cc(-c2ccc(Cl)c(Cl)c2Cl)nc2ccccc12`: the “hERG current change (%, negative = inhibition) at 10uM” value was determined as 2.88%.
In the case of `Cn1cnnc1SCc1cccc(Br)c1`, the “hERG current change (%, negative = inhibition) at 10uM” value turned out to be 0.347%.
As for `Cc1cnc(NC(=O)CCCSc2nc3ccccc3s2)s1`, the figure is 6.21%; as for `Cc1ccc(C2CC(c3ccccc3)=NN2C(=O)CSc2nnc(-c3ccc(Cl)cc3)o2)o1` (stereo not drawn), 4.25%; as for `CC(=C/c1ccccc1)/C=N/Nc1nc(N2CCOCC2)nc(N2CCOCC2)n1`, -16.9%.
For `O=C(CCc1nc2ccccc2c(=O)[nH]1)NNC(=O)c1cccc(Cl)c1`, the “hERG current change (%, negative = inhibition) at 10uM” value was determined as 2.51%.
On to `Cc1[nH]c(=O)[nH]c(=O)c1S(=O)(=O)N1CCCC(C(=O)N2CCC(Cc3ccccc3)CC2)C1` (stereo not drawn), for which the “hERG current change (%, negative = inhibition) at 10uM” value was 15.1%.
Take `Nc1nnc(SCc2ccc(Cl)cc2)s1`: the “hERG current change (%, negative = inhibition) at 10uM” value is -0.0745%.
In the case of `COc1ccccc1C(=O)COC(=O)c1cc(=O)[nH]c2ccccc12`, the “hERG current change (%, negative = inhibition) at 10uM” value came out at 1.74%.
With `Cc1cc(=O)oc2cc(OCC(=O)N3CCN(c4ccccc4)CC3)ccc12`, the “hERG current change (%, negative = inhibition) at 10uM” value is -36.6%.
With `COC(=O)C1=C(c2ccc(OC)c(OC)c2)C[C@@H]2CC[C@H]1N2C(=O)NCCCOC(C)C`, the “hERG current change (%, negative = inhibition) at 10uM” value worked out at 15.3%.
As for `CCn1ccnc1CN(C)C(=O)c1cc(COc2c(F)cccc2F)on1`, the figure is 8.9%; as for `CN(Cc1cccc(F)c1)C(=O)c1cc(=O)[nH]c2ccccc12`, 1.39%; as for `CCN1N=C(c2cc(Cl)sc2Cl)CSC1=O`, -3.22%.
As to `Nc1ccc(C(=O)Nc2ccc(NC(=O)c3ccco3)c(O)c2)cc1`, the “hERG current change (%, negative = inhibition) at 10uM” value is recorded as 24.7%.
Turning to `CCCCN(CC)CCNc1c(N2CCN(C(=O)OCC)CC2)c(=O)c1=O`, the “hERG current change (%, negative = inhibition) at 10uM” value is recorded as 11.4%.
The result for `COc1ccc(-n2c(=O)[nH]c3cc(C(=O)NCCc4ccc(Cl)cc4)ccc3c2=O)cc1OC` reads 10.6%.
